Here are results for 1 substance from paper PMC9890698 (BMC Biology, 2023).

By UniProt entry, the sequences of proteins in these tests, tags left out.
UniProt P47900: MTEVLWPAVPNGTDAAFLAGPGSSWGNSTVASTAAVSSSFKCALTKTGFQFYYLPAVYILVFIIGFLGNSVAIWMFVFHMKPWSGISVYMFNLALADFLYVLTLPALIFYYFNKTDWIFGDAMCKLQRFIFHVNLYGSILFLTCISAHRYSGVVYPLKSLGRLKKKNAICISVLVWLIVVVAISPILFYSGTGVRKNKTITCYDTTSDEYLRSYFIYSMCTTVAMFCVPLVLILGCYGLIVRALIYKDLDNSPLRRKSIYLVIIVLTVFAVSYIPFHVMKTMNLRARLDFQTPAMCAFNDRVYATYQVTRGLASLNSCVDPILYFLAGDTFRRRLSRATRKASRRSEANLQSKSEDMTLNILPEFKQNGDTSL
UniProt P25095: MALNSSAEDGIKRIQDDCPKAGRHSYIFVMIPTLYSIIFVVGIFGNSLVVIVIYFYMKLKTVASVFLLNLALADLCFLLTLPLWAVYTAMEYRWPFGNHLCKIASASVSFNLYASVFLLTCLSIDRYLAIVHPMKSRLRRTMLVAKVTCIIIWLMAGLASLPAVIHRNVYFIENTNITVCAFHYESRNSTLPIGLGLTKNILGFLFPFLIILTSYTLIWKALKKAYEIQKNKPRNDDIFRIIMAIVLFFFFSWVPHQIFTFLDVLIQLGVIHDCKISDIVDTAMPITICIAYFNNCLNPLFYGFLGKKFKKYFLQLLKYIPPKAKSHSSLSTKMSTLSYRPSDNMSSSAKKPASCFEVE
UniProt Q9H244: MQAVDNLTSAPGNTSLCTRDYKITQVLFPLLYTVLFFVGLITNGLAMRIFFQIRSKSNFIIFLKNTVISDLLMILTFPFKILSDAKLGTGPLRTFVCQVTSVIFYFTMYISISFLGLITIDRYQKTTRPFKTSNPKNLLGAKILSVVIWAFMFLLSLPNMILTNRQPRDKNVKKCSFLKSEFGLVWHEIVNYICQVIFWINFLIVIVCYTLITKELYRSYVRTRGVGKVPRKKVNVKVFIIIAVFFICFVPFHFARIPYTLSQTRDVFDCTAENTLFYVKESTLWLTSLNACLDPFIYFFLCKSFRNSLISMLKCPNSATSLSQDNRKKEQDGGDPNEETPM
UniProt P32121: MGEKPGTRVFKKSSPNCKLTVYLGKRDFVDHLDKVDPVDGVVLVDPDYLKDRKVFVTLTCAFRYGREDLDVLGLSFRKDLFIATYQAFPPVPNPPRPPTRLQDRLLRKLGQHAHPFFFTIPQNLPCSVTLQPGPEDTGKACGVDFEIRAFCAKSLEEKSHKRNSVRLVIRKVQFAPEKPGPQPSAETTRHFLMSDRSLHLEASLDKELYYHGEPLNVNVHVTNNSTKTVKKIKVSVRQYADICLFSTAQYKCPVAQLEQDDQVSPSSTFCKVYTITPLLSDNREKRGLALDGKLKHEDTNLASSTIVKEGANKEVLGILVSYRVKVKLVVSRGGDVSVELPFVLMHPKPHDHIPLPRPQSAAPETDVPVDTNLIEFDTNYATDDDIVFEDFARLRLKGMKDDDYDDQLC

Assay [1] has as its target Human P2Y1 receptor fused to Venus in the C-terminus intracellular region (human) (UniProt P47900). Briefly: FRET or BRET; BRET1 in HEK293T/17 cells co-expressing β-arrestin 2-RLuc and receptor-Venus, after stimulation or not with ADP (10 μM), AngII (10 μM), MRS2179 (10 μM) or 2MeSADP (10 μM) for 5 or 15 min; kinetics read at 20-s intervals; also with decreasing amounts of P2Y1-R-Venus vector. Background: In BRET a luciferase serves as donor, and the signal depends on an acceptor being close.

The target in assay [2] is Rat angiotensin II type 1 receptor fused to Venus in the C-terminus intracellular region (rat) (UniProt P25095). The assay is described as above.
Assay [3] has as its target Human P2Y12 receptor fused to Venus in the C-terminus intracellular region (human) (UniProt Q9H244). Described as above.
Assay [4] deals with Human P2Y1 receptor fused to Venus in the C-terminus intracellular region (human) (UniProt P47900). As to the kind of experiment: FRET or BRET; BRET1, basal signal in HEK293T/17 cells expressing β-arrestin 2-RLuc alone or with receptor-Venus, no agonist; also with 0.2 U/mL apyrase; coelenterazine h 5 μM.
The target of assay [5] is Human P2Y12 receptor fused to Venus in the C-terminus intracellular region (human) (UniProt Q9H244). Described as above.
Assay [6] concerns the target Human P2Y1 receptor fused to Venus in the C-terminus intracellular region (human) (UniProt P47900). Briefly: FRET or BRET; BRET1 saturation curves in HEK293T/17 cells: fixed amount of β-arrestin 2-RLuc and increasing amounts of receptor-Venus or Venus; Net BRET, nonlinear regression with a one-site binding model.
Assay [7] deals with Human P2Y12 receptor fused to Venus in the C-terminus intracellular region (human) (UniProt Q9H244). The description is as above.

No constants are given. Whether binding was seen depends on the method and setting. In cells and extracts the contact can be indirect. Some binding calls cover weakened binding; strength is not graded here.

In the case of “β-arrestin 2 fused to the Renilla reniformis luciferase (RLuc) (from UniProt P32121 1-409)”, the binding entry is reported as “binds” in assay [1]; “binds” in assay [2]; “no binding” in assay [3]; “binds” in assay [4]; “no binding” in assay [5]; “binds” in assay [6]. The binding result in assay [7] was “no binding”.
